# Measured values: PubChem BioAssay AID504466 (National Center for Advancing Translational Sciences (NCATS), 2011)
# Among all 330,000 compounds or so, about 4,200 (1.3%) were called active. Inconclusive results, whose numbers are uncertain, are shown with a selection of clear calls. Calls follow the shape of the dose curve; as a rule, active = well fitted activation curve with a large enough effect; inconclusive = small, poorly fitted or top-dose-only effect; inactive = no such curve, though single readings can be large or run the other way. A potency beside an inconclusive call is a rough fit, not a confirmed value.
# Experiment: qHTS screen for small molecules that induce genotoxicity in human embryonic kidney (HEK293T) cells expressing luciferase-tagged ELG1; also: nearly all actives have a fitted effect of over 60% in size
# Conditions: HEK293T ELG1-luciferase reporter, luminescence, 16 h; series mostly up to 46 µM
# Summary of the method: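 Cells (2,000/well) expressing the ELG1-luciferase fusion are dosed by pin tool and kept 16 hr at 37 °C, 5% CO2. Signal comes from ONE-Glo luciferase reagent after 30 min at room temperature.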
# Potency is read from the fitted curve at half-maximal effect; tags tell the direction and shape of the fitted curve.
row,SMILES,Potency
1,C/C(=C\C(=O)c1ccc(Br)cc1)Nc1ccc(Cl)cc1,"inconclusive: 23.1 µM [activator, single point]"
2,CCCC(=O)Nc1sc(C(=O)Nc2cccc(N)c2)c(C)c1C(=O)OC,"inconclusive: 2.91 µM [activator, full curve]"
3,Cc1ccc(OCC(=O)O/N=C(\N)c2ccncc2)cc1C,inactive
4,Oc1[nH]c2c(Cl)cc(Cl)cc2c1N=NC(=S)NCC1CCCO1 (configuration not stated),"inconclusive: 29.1 µM [activator, single point]"
5,CC(=O)c1c(C)[nH]c(C(=O)Nc2cccc(S(=O)(=O)N(C)C)c2)c1C,"inconclusive: 20.6 µM [activator, partial curve]"
6,Cc1ccc(C)c(CNC(=O)Nc2ccccc2)c1,"inconclusive: 20.6 µM [activator, partial curve, poor fit]"
7,COc1ccc(NS(=O)(=O)c2cccc(C(=O)OCC(=O)N3CCN(c4ccc(OC)cc4)CC3)c2)cc1,"inconclusive: 20.6 µM [activator, single point]"
8,NC(=O)c1ccc(-c2noc(-c3ccccc3F)n2)cc1,"inconclusive: 1.03 µM [activator, full curve]"
9,Cc1csc(NC(=O)c2cccn2C)n1,"inconclusive: 5.8 µM [activator, full curve, poor fit]"
10,CCCCCC(=O)Nc1cccc(C2=NOC3(C2)C[C@H](C(N)=O)N(C(=O)CCCCC)C3)c1 (some centres not stated),inactive
11,S=C(NCCc1ccccc1)Nc1ccccn1,"inconclusive: 32.6 µM [activator, partial curve, poor fit]"
12,O=C(NCc1ccco1)c1cc(-c2cccc(Cl)c2)on1,"inconclusive: 16.4 µM [activator, partial curve, poor fit]"
13,C/C(=N\N1C(=O)c2ccccc2NC1c1ccccc1)c1ccccc1O (configuration not stated),active: 4.61 µM
14,COc1ccc(NS(=O)(=O)N2CCOCC2)cc1,inactive
15,Cc1ccc(C(=O)Nc2ccc3c(c2)nc2n3CCSC2)cc1,"inconclusive: 2.06 µM [activator, partial curve]"
16,CCNC(=O)c1sc2cc(C)ccc2c1Cl,"inconclusive: 18.3 µM [activator, partial curve]"
17,CCc1ccc(NC(=O)c2nc(S(=O)(=O)Cc3ccccc3)ncc2Cl)cc1,inactive
18,Cc1cccc(NC(=O)CNC(=O)c2ccc3nc[nH]c3c2)c1C,inactive
19,COc1ccc(NC(=O)c2ccco2)cc1NC(=O)COc1ccccc1[N+](=O)[O-],"inconclusive: 5.8 µM [activator, full curve]"
20,CC1CC(=O)NN=C1c1ccc(NCCO)c([N+](=O)[O-])c1 (configuration not stated),"inconclusive: 18.4 µM [activator, partial curve, poor fit]"
21,Cc1cc(C)c(C#N)c(SCC(=O)Nc2ccc3c(c2)OCO3)n1,active: 16.4 µM
22,COc1ccc(/C=C/C(=O)c2ccc(C(=O)/C=C/c3ccc(OC)c(OC)c3)cc2)cc1OC,inactive
23,CCOC(=O)[C@@H]1[C@H]2COc3cc(OC)ccc3[C@@H]2N2C(=O)N(c3cccc(Cl)c3)C(=O)[C@@]12C,inactive
24,Cc1csc2nc(CNC(=O)c3ccco3)cn12,active: 18.4 µM

row,SMILES,Potency
1,O=C(CC1CCCCC1)Nc1nc2ccccc2s1,"inconclusive: 5.8 µM [activator, partial curve]"
2,CC(C)(C)c1ccc(OC(=O)c2ccc3snnc3c2)cc1,inactive
3,COc1ccc2[nH]c(=O)c(CN(CC3CCCO3)S(=O)(=O)c3ccccc3F)cc2c1 (configuration not stated),inactive
4,Cc1cccc(NC(=O)COn2nnc3ccc(S(C)(=O)=O)cc32)c1,inactive
5,COc1cccc(OCc2cc(C(=O)N(C)Cc3nc4ccccc4[nH]3)no2)c1,"inconclusive: 13 µM [activator, partial curve]"
6,O=[N+]([O-])c1ccc2nc(-c3ccc(Cl)cc3)n(OCc3ccccc3)c2c1,"inconclusive: 2.91 µM [activator, partial curve, poor fit]"
7,CCN(CC)S(=O)(=O)c1cc(NC(=O)C(C)N2CCN(c3ccccn3)CC2)ccc1C (configuration not stated),inactive
8,CCOC(=O)c1cccc(NC(=O)c2ccc3c(c2)OCO3)c1,"inconclusive: 7.3 µM [activator, partial curve, poor fit]"
9,Clc1nc(-c2cccnc2)nc2scc(-c3ccccc3)c12,"inconclusive: 32.6 µM [activator, partial curve, poor fit]"
10,CCOC(=O)C1(Cc2ccccc2Cl)CCN(C(=O)c2cnccn2)CC1,"inconclusive: 16.4 µM [activator, partial curve]"
11,COC(=O)c1c(-c2cccnc2)csc1NC(=O)c1ccc2c(c1)OCO2,active: 2.91 µM
12,Cc1c(-c2ccccc2)n[nH]c1C(=O)NN,"inconclusive: 18.3 µM [activator, partial curve, poor fit]"
13,CC(C)C(=O)Nc1ccc(NC(=O)c2cccc(F)c2)cn1,"inconclusive: 25.9 µM [activator, partial curve, poor fit]"
14,N#CCc1nn(-c2ccc(F)cc2)c(N)c1C#N,inactive
15,CCC(NC(=O)c1ccccc1NC(=O)c1ccc(OC)cc1)C(=O)N1CCCC1 (configuration not stated),inactive
16,O=C(NC(=S)Nc1cccc(O)c1)c1ccco1,"inconclusive: 20.6 µM [activator, partial curve]"
17,CCc1ccc(NC(=S)NCc2ccccc2)cc1,inactive
18,O=C(Nc1nccs1)c1ccc(-c2ccc(Cl)cc2)o1,"inconclusive: 2.91 µM [activator, partial curve]"
19,O=[N+]([O-])c1cccc(-c2nc(-c3ccccc3)no2)c1,"inconclusive: 7.3 µM [activator, partial curve]"
20,O=C(NCCc1ccccc1)c1cnc2ccccc2n1,"inconclusive: 7.3 µM [activator, partial curve]"
21,Cc1ccc(-n2cnc(N)c2C(=O)c2cccc([N+](=O)[O-])c2)cc1,inactive
22,Cc1cc(=O)[nH]c(SCC(=O)Nc2nnc(CC(C)C)s2)n1,inactive
23,COc1cc(-c2nc3ccccn3c2NCc2ccccc2)ccc1SC1CCCCC1,"inconclusive: 5.8 µM [activator, partial curve]"
